# Test results: PubChem BioAssay AID504333 (National Center for Advancing Translational Sciences (NCATS), 2011)
# Hit rate of the full screen: of about 360,000 compounds, about 16,000 (4.4%) were called active. Inconclusive results, whose numbers are uncertain, are shown with a selection of clear calls. The call rests on the fitted dose curve; in most records, active means well fitted inhibition curve with a large enough effect; inconclusive means small, poorly fitted or top-dose-only effect; inactive means no such curve, though single readings can be large or run the other way. Potencies of inconclusive entries are doubtful fits and often do not repeat.
# Biological target: Bromodomain adjacent to zinc finger domain protein 2B (Homo sapiens) (UniProt Q9UIF8)
# Assay: qHTS Assay for Inhibitors of BAZ2B; further: nearly all actives have a fitted effect of over 60% in size
# Details: AlphaScreen BAZ2B-H3K14Ac peptide displacement; activity change, negative = inhibition: at 114 µM (top of the series)
# Source text: BAZ2B (bromodomain adjacent to zinc finger domain, 2B) belongs to a family of ubiquitously expressed bromodomain containing proteins, which biological function has not yet been elucidated. […] The interaction of BAZ2B with ISWI mediated by the BAZ1 motif has recently been described. […] The protocol is based on the AlphaScreen (PerkinElmer) displacement assay developed by NCGC [5], but uses the peptide ligand Biot-H3K14Ac, a high affinity binding partner for BAZ2B, in an AlphaScreen format. Although AlphaScreen has significant advantages with its utility in a variety of epigenetic target assays, the primary screening data provided in this deposition should be used with caution due to the prevalence of screening artifacts. The top compound concentration tested was 110uM in this assay, which increases number of actives and potential artifacts. An AlphaScreen counterscreen is highly recommended to be run against any putative actives to eliminate non-specific artifacts. Alternatively, one can use other AlphaScreen assays in PubChem to filter out promiscuous hits. Eberharter, A. et al. ACF1 improves the effectiveness of nucleosome mobilization by ISWI through PHD-histone contacts. The EMBO journal 23, 4029-4039. 2004. PMID: 15457208 [2] Jones, M.H. et al. A novel family of bromodomain genes. Genomics 63, 40-45. 2000. PMID: 10662543 [3] Yasgar, et al. Compound Management for Quantitative High-Throughput Screening. JALA. 2008 Apr;13(2):79-89. PMID: 18496600 [4] Inglese, et al. Quantitative high-throughput screening: a titration-based approach that efficiently identifies biological activities in large chemical libraries. Proc Natl Acad Sci. 1;103(31):11473-8. 2006. PMID: 16864780 [5] Quinn et al. A chemiluminescence-based method for identification of histone lysine methyltransferase inhibitors. Mol Biosyst 6(5): 782-8. 2010. PMID: 20567762 [6] Baell,Holloway. New substructure filters for removal of pan assay interference compounds (PAINS) from screening libraries and for their exclusion in bioassays. J Med Chem. 53(7):2719-40. 2010. PMID: 20131845 NIH Molecular Libraries Probe Production Network [MLPCN] NIH Chemical Genomics Center [NCGC] Structural Genomics Consortium (SGC) NIH Grant: 5U54 MH084681-02
# To each well of a 1,536w plate, 2ul of BAZ2B protein (final 50nM) and 1ul biotinylated histone peptide acetylated at Lys14 [b-H3(5-23)K14Ac] (final 50nM) were added in 1x PBS buffer, pH 7.4, containing 0.01% Tween-20, using a nanoliter dispenser. Formation of a protein-peptide complex proceeded at room temperature for 30 min. A Kalypsys pin-tool was employed to transfer 23 nL of library compound solution in DMSO to each well. Following a 30 min incubation of the protein-peptide complex with compounds at room temperature, a mixture of 40 ug/mL each streptavidin-coated donor and nickel chelate acceptor AlphaScreen beads (final 10 ug/mL) were added in a 1ul dispense for a final volume of 4ul. A brief centrifugation followed (1000rpm, 1 min) and were then incubated protected from the light for 20 min at room temperature. Plates were read on an EnVision multilabel plate reader using the 1,536 plate HTS AlphaScreen aperture (excitation time 80 ms, measurement time 240 ms).
# On the % scale 0 is the no-effect control and ±100 the full control effect; potency means the concentration at half of the fitted maximal effect; tags describe the fitted curve by direction and shape.
# UniProt Q9UIF8, sequence (Q9UIF8 whole entry, looked up, the tested form may be a part): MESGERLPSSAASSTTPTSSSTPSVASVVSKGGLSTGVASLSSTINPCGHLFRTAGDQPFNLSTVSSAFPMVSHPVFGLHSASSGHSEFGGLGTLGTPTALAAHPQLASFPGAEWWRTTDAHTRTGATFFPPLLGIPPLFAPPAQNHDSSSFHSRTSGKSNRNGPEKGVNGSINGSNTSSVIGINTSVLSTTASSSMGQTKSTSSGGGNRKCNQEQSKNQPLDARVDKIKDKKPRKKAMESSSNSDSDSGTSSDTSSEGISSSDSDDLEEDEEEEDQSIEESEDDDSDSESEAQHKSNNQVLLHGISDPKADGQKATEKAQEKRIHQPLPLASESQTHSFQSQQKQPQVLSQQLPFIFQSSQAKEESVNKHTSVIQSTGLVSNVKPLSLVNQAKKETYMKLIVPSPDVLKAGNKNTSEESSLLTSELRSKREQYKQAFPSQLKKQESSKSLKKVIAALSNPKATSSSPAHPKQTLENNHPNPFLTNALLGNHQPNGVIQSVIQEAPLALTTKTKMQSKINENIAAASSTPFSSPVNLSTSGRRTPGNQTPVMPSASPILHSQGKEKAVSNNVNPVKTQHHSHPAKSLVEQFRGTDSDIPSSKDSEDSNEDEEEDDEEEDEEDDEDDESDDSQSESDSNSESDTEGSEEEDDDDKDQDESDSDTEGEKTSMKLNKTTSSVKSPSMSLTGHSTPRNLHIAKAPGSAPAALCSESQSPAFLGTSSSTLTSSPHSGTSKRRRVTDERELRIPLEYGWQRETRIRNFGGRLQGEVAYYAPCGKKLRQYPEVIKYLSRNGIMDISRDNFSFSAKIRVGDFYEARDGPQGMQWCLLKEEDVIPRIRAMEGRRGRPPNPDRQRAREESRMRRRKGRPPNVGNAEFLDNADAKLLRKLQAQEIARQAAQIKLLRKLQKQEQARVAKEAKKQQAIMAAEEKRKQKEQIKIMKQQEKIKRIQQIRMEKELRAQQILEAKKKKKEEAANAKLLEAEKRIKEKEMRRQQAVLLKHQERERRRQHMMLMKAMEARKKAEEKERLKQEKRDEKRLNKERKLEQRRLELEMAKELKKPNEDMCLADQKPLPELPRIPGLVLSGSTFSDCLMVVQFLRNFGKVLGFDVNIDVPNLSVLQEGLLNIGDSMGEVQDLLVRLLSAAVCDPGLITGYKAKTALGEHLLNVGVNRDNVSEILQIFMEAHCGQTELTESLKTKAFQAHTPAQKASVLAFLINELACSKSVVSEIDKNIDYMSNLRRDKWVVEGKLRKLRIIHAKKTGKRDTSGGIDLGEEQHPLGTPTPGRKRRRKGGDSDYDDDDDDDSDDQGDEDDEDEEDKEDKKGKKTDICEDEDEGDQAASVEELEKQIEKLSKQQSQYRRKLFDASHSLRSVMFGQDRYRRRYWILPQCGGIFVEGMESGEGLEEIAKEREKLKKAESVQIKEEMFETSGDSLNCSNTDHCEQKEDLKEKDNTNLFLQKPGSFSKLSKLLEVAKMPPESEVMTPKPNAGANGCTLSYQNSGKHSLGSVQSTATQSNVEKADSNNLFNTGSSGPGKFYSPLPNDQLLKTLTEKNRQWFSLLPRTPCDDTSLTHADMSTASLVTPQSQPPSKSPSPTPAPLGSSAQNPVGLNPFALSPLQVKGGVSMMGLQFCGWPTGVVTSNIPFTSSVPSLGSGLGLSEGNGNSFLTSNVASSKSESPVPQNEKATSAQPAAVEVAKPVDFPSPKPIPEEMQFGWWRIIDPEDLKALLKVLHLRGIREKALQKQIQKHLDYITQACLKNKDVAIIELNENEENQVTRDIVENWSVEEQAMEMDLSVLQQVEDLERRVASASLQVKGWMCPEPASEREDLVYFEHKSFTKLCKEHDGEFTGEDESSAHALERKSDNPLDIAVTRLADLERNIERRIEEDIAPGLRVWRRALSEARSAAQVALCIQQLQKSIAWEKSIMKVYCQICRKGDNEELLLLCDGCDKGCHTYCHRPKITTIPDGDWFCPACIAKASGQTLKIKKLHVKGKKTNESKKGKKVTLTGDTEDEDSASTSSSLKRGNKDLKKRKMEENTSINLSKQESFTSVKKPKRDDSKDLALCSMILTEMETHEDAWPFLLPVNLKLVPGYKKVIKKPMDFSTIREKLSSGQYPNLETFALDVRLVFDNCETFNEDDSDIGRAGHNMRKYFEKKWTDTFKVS
Compound,Potency,"activity change, negative = inhibition"
COC(=O)c1cccc(-n2c(C)cc(C=O)c2C)c1C,"inconclusive: 70.8 µM [inhibitor, single point]",
COc1ccc(OC)c(N(CC(=O)NCCSCc2ccco2)S(=O)(=O)c2ccccc2)c1,"inconclusive: 50.1 µM [inhibitor, partial curve]",
CCc1nc(OCCN(CC)CC)c2oc3ccccc3c2n1,"inconclusive: 79.4 µM [inhibitor, single point]",
O=C(CNS(=O)(=O)c1cccs1)N1CCN(c2ccccn2)CC1,,inactive: -0.0993%
O=C(CSc1ncn(-c2ccccc2)n1)Nc1nc2c(s1)CCCC2,active: 44.7 µM,
CN(C)CCCNC(=S)NCc1ccc(Cl)cc1,,inactive: 11.6%
O=C(CSc1nc(NS(=O)(=O)c2ccccc2)cc(=O)[nH]1)Nc1ccc(Cl)cc1,active: 79.4 µM,
O=S(=O)(NCC1CCCO1)c1cnc(Cl)c(Br)c1 (stereo not given),,inactive: 6.77%
O=[N+]([O-])c1cccc(Cl)c1NCCNc1ncc(C(F)(F)F)cc1Cl,"inconclusive: 22.4 µM [inhibitor, full curve]",
COc1ccc(NC(=O)c2ccc3c(c2)c(C)c(C)n3Cc2ccc(F)cc2)c(OC)c1,,inactive: -32.1%
Cc1ccc2oc(=O)c3cc(C(=O)NCCCN4CCN(C)CC4)sc3c2c1,,inactive: -22.1%
COc1ccccc1C1C2=C(N=c3s/c(=C/c4cccc(OCC(=O)O)c4)c(=O)n31)c1ccccc1CC2 (stereo not given),active: 50.1 µM,
O=C(CCCC(=O)N(c1cccc(F)c1)C(C(=O)NC1CCCC1)c1ccc(O)cc1)Nc1ccccn1 (stereo not given),,inactive: -16.3%
CC(NC(=O)C(=O)NN=C1CCCC1)c1ccccc1 (stereo not given),,inactive: -22.5%
O=C(Nc1ccc(Cl)c(S(=O)(=O)N2CCOCC2)c1)c1cc(-c2ccccn2)nc2ccccc12,"inconclusive: 31.6 µM [inhibitor, full curve]",
Cc1ccc(C)c(S(=O)(=O)NCCOC(=O)Nc2sc(=S)n(C)c2C)c1,"inconclusive: 79.4 µM [inhibitor, single point]",
CCc1ccc(N2CCN(S(=O)(=O)CC34CCC(CC3=O)C4(C)C)CC2)cc1 (stereo not given),"inconclusive: 79.4 µM [inhibitor, single point]",
CCOC(=O)C1=C(C)Nc2ccc(C)cc2S1,active: 50.1 µM,
CN1CCO/C1=C(\C(Cl)=C(Cl)Cl)[N+](=O)[O-],active: 50.1 µM,
CC(CN(C)Cc1nc(Cc2cccc(C(F)(F)F)c2)no1)CN1CCCC1 (stereo not given),"inconclusive: 31.6 µM [inhibitor, partial curve]",
COc1ccc(-c2nnc(NC(=O)c3ccc(S(=O)(=O)N4COCC4(C)C)cc3)o2)cc1,active: 56.2 µM,
Cc1ccc(S(=O)(=O)N2CCN(S(C)(=O)=O)C2C)cc1 (stereo not given),,inactive: -4.46%
Cn1cc(CCNC(=O)CC2C(=O)NCCN2CC(c2ccccc2)c2ccccc2)cn1 (stereo not given),,inactive: -7.44%
CCN(CC)CCN(C(=O)CN1C(=O)c2ccccc2C1=O)c1nc2cc3c(cc2s1)OCO3,"inconclusive: 44.7 µM [inhibitor, partial curve]",
Cc1oc(-c2ccc(Cl)cc2)nc1CS(=O)CC(=O)NC1CC1 (stereo not given),,inactive: -9.44%

Compound,Potency,"activity change, negative = inhibition"
CCOC(=O)C1(Cc2ccccc2)CCCN(Cc2ccccn2)C1 (stereo not given),,inactive: -7.24%
COc1cc(-c2nc(-c3ccccc3)c(-c3cccs3)[nH]2)cc(OC)c1O,active: 50.1 µM,
O=C(NNc1c2ccccc2nc2ccccc12)C(O)c1ccccc1 (stereo not given),,inactive: -29.4%
COc1ccc(-c2ccc3c(c2)S(=O)(=O)c2cccc(C(=O)NC[C@@H]4CCCO4)c2C3=O)cc1OC,"inconclusive: 89.1 µM [inhibitor, single point]",
COC(=O)Cn1c(=O)c(=O)n(CC(=O)OC)c2ccccc21,,inactive: -31.2%
O=C(Nc1ccc(N2CCC(N3CCCCC3)CC2)c(C(=O)O)c1)c1ccccc1,"inconclusive: 89.1 µM [inhibitor, single point]",
CCC(C)(C)NC(=O)C(OC(=O)c1ccco1)c1ccccc1F (stereo not given),"inconclusive: 89.1 µM [inhibitor, single point]",
Cc1ccc(NC(=O)N2CCCC(c3nc(-c4ccc(F)cc4)no3)C2)cc1 (stereo not given),"inconclusive: 89.1 µM [inhibitor, single point]",
Cc1cccc(-c2nc3c4ccccc4nc(NCc4ccccc4Cl)n3n2)c1,"inconclusive: 100 µM [inhibitor, single point]",
COc1ccc(CNC2CCCc3ccccc32)cc1OC (stereo not given),active: 70.8 µM,
COc1ccc(/C=N/n2cnc3c(sc(=S)n3-c3ccccc3)c2=O)cc1,,inactive: 8.35%
CCOC(=O)c1cnc2ccccc2c1Nc1ccc2c(c1)OCCO2,"inconclusive: 56.2 µM [inhibitor, partial curve]",
OCCNCCOCCOc1ccccc1-c1ccccc1,"inconclusive: 89.1 µM [inhibitor, single point]",
O=C(O)c1cc(S(=O)(=O)O)cc(Nc2c3ccccc3nc3ccccc23)c1O,"inconclusive: 70.8 µM [inhibitor, partial curve]",
C=CCn1c(O)c(N=NC(=S)Nc2ccccc2F)c2ccccc21,"inconclusive: 5.01 µM [inhibitor, full curve]",
O=C(CN1CCCCCC1)Nc1ccc(Br)cc1[N+](=O)[O-],active: 15.8 µM,
O=C(CN(C1CCCCC1)S(=O)(=O)c1ccc(F)cc1)NCCCO,"inconclusive: 89.1 µM [inhibitor, single point]",
CCCC1(C(=O)OC)NC(c2ccc(OC)c(OC)c2)C2C(=O)N(c3ccc4c(c3)OCO4)C(=O)C21 (stereo not given),,inactive: -3.4%
Nc1nc(NCCO)nc(NC2CCCCC2)c1[N+](=O)[O-],"inconclusive: 89.1 µM [inhibitor, single point]",
CCc1ccc(NC(=S)Nc2cc(OC)c(NC(=O)C(C)C)cc2OC)cc1,"inconclusive: 79.4 µM [inhibitor, partial curve]",
CCc1ccc(/C=C2/SC(=S)N(CCC(=O)Nc3cccc(C(=O)O)c3)C2=O)cc1,active: 35.5 µM,
CCOC(=O)c1[nH]cnc1C(=O)Nc1ccccc1C,"inconclusive: 89.1 µM [inhibitor, single point]",
O=C(N=C1SC2CS(=O)(=O)CC2N1c1ccc(F)cc1)C1CC1 (stereo not given),"inconclusive: 39.8 µM [inhibitor, single point]",
Cc1cc2c(cc3c(SCc4ccc(Cl)cc4)nnc(C)n32)o1,active: 28.2 µM,
CC1=CC(C)(C)N2C(=O)C(=Nc3ccc(O)cc3)c3cccc1c32,active: 35.5 µM,

Compound,Potency,"activity change, negative = inhibition"
COc1cc(C)nc(Oc2ccc(OCCOc3ccc(C)cc3)nn2)n1,"inconclusive: 89.1 µM [inhibitor, single point]",
O=C(Nc1cccnc1)c1cc(-c2ccc(Br)cc2)nc2ccccc12,,inactive: -33.7%
C=CCN(c1ccccc1)S(=O)(=O)c1cccc(C(=O)NCC(c2ccc(OC)cc2)N2CCCCC2)c1 (stereo not given),"inconclusive: 79.4 µM [inhibitor, single point]",
O=C(NC1CCC(O)CC1)c1cccc2cccnc12 (stereo not given),,inactive: -1.28%
O=C(NC1CCCCC1)N(Cc1nc2ccccc2c(=O)[nH]1)C1CCCCC1,"inconclusive: 89.1 µM [inhibitor, single point]",
CC(/C=C1\SC(=S)N(c2ccc(C(=O)O)cc2)C1=O)=C\c1ccccc1,active: 22.4 µM,
Cc1ccc(-c2nc3sccn3c2Nc2ccccc2C)cc1,active: 7.08 µM,
Cc1ccc(C)c(N=Nc2nc3ccccc3n2C)c1,active: 8.91 µM,
CCCCSCc1cc(C(=O)O)oc1C(C)(C)C,"inconclusive: 50.1 µM [inhibitor, partial curve]",
N#Cc1c(NCCCO)nc(NCc2ccccc2)c2c1CCN(Cc1ccccc1)C2,active: 31.6 µM,
CCCCN(Cc1ccco1)S(=O)(=O)c1c[nH]c(C(=O)OC)c1,"inconclusive: 63.1 µM [inhibitor, partial curve]",
COc1cc(NC(=O)CSc2nc(C)c(C(=O)Nc3ccccc3)c(-c3ccc(OC)c(OC)c3)c2C#N)c(OC)cc1Cl,,inactive: -11.1%
Cc1cc(Nc2sc(C(=O)c3ccc(F)cc3)c(N)c2C(=O)Nc2ccc(F)cc2)ccc1Cl,"inconclusive: 35.5 µM [inhibitor, full curve, poor fit]",
CCOC(=O)c1c(NC(=O)CNCCOC)sc2c1CCCC2,,inactive: -24.8%
Nc1nonc1-c1nc2ccccc2n1CC(=O)N/N=C/c1ccc(-c2ccccc2C(=O)O)o1,active: 50.1 µM,
COCCn1c(-c2ccc(Cl)cc2)cnc1SCC(=O)NCCc1ccc(OC)c(OC)c1,"inconclusive: 28.2 µM [inhibitor, partial curve]",
COc1ccc(C(=O)NC(NC(=S)Nc2ccc(S(N)(=O)=O)cc2)C(Cl)(Cl)Cl)cc1 (stereo not given),"inconclusive: 70.8 µM [inhibitor, single point]",
N#CC(c1ccccc1)c1cnccn1 (stereo not given),,inactive: 11.5%
CNc1ccc(/C=C(\CCC(=O)O)c2nc3ccccc3s2)cc1[N+](=O)[O-],active: 44.7 µM,
Fc1ccccc1N1CCN(CCCc2ccccc2)CC1,"inconclusive: 89.1 µM [inhibitor, single point]",
CC(=O)NC(c1cccs1)c1cc(F)c2cccnc2c1O (stereo not given),active: 25.1 µM,
CCOc1cc(N(CC)CC)ccc1/C=C(/C#N)c1nc2ccccc2[nH]1,"inconclusive: 39.8 µM [inhibitor, partial curve]",
Cc1cc(C)cc(N(CCC#N)C(=O)COC(=O)CCc2c[nH]c3ccccc23)c1,"inconclusive: 44.7 µM [inhibitor, partial curve]",
CCOCCCn1c(=N)c(C(=O)NCc2ccco2)cc2c(=O)n3ccccc3nc21,,inactive: -12%
O=[N+]([O-])c1ccc(/C=N/N2CCN(Cc3ccccc3)CC2)cc1,active: 12.6 µM,
